Source: article PMC12889043
Results are given in words; binding and its absence hold for the method and conditions named. Binding seen in cells or lysates may run through a third protein. Some entries that bind do so weakly or less than the wild type. Sequences can lack the tags named with a protein.

Amino acid sequences for entries named in this document (tags omitted).
UniProt P19474: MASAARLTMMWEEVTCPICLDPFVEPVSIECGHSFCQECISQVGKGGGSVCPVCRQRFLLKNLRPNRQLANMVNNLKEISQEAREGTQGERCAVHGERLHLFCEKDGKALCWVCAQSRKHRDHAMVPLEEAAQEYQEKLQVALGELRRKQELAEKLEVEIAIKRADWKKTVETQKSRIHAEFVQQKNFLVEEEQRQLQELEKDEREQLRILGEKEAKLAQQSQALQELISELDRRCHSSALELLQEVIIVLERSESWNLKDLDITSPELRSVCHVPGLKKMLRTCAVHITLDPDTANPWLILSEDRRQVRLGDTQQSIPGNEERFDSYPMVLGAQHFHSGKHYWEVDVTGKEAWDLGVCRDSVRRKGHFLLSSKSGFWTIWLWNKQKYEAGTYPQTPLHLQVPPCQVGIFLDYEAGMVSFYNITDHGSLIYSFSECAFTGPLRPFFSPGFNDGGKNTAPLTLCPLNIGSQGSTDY

How the values were obtained:
[1] = biological target: HA-TRIM21 (UniProt P19474); test: co-IP; HEK293T transfected with HA-TRIM21 and Flag-hRND3, 24 h; IP with anti-HA antibody (1:100); blot with anti-Flag
[2] = biological target: T1, HA-IKKε (IκB kinase epsilon) (UniProt Q14164); test: co-IP; HEK293T co-transfected with Flag-RND3 and HA-IKKε, 24 h; precipitate blotted with anti-Flag (precipitating antibody not stated)
T1 sequence: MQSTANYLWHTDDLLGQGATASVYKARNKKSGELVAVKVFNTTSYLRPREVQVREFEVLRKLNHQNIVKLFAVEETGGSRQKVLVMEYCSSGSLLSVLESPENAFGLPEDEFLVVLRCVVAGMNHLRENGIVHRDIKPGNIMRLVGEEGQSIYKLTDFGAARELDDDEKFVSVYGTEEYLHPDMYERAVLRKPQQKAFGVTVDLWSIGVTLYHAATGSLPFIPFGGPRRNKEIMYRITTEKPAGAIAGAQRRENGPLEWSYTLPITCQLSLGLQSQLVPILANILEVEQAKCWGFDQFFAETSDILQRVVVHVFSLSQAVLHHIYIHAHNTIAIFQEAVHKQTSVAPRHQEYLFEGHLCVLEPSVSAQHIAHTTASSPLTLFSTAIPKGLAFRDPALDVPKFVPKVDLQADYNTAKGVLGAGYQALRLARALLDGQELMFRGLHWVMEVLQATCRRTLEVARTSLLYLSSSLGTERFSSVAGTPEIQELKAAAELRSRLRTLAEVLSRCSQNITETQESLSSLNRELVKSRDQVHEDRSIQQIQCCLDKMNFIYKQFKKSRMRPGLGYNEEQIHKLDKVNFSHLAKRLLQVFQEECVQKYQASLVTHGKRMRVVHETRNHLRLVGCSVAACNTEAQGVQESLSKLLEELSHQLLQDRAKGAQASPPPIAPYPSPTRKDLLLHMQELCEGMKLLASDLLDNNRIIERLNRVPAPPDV

[3] = biological target: T1, HA-IKKε (IκB kinase epsilon); test: co-IP; HEK293T transfected with Myc-hRND3, HA-IKKε and Flag-TRIM21; after 12 h infected with EMCV at MOI 0.01 for 12 h; IP with anti-HA antibody (1:100); blot with anti-Flag

| Binder | binding [1] | binding [2] | binding [3] |
| --- | --- | --- | --- |
| Flag-tagged full-length human RND3 (pcDNA3.1-Flag-hRND3) (protein, UniProt P61587 1-244) MKERRASQKLSSKSIMDPNQNVKCKIVVVGDSQCGKTALLHVFAKDCFPENYVPTVFENYTASFEIDTQRIELSLWDTSGSPYYDNVRPLSYPDSDAVLICFDISRPETLDSVLKKWKGEIQEFCPNTKMLLVGCKSDLRTDVSTLVELSNHRQTPVSYDQGANMAKQIGAATYIECSALQSENSVRDIFHVATLACVNKTNKNVKRNKSQRATKRISHMPSRPELSAVATDLRKDKAKSCTVM | binds | binds |  |
| Myc-tagged full-length human RND3 (pcDNA3.1-Myc-hRND3) (protein, UniProt P61587 1-244) MKERRASQKLSSKSIMDPNQNVKCKIVVVGDSQCGKTALLHVFAKDCFPENYVPTVFENYTASFEIDTQRIELSLWDTSGSPYYDNVRPLSYPDSDAVLICFDISRPETLDSVLKKWKGEIQEFCPNTKMLLVGCKSDLRTDVSTLVELSNHRQTPVSYDQGANMAKQIGAATYIECSALQSENSVRDIFHVATLACVNKTNKNVKRNKSQRATKRISHMPSRPELSAVATDLRKDKAKSCTVM |  |  | binds |
